Among the test systems are SK-MEL-2 melanoma; K-562 leukemia; MOLT-4 leukemia.
What all share (experiment): growth of human tumour cells (NCI), 48 h

Each structure is given as a SMILES string.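 Step 1: Grow cells in 96-well plates. Step 2: Expose to compound for 48 hours at 5 concentrations. Step 3: Interpolate endpoints linearly; if unreached, use highest concentration. GI50: concentration for 50% inhibition of growth.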 For part of its entries the source gives two or more results. This is not the full list of results. The source may hold further records. A record mostly stands for its own series of concentrations, which the source does not state; a value can be the end of its range.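 TGI marks complete inhibition of growth.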

Consider `O=NN(CCCl)C(=O)NCCCl`, for which the GI50 with SK-MEL-2 melanoma is 33.4 µM and > 363 µM; in the assay on K-562 leukemia it was 88.6 µM [1 test] and 277 nM [mean of 2 tests].

In the case of `COc1cccc2c1C(=O)c1c(O)c3c(c(O)c1C2=O)C[C@@](O)(C(C)O)C[C@@H]3OC1CC(N)C(O)C(C)O1` (stereo partly drawn), the TGI in the assay on MOLT-4 leukemia is 467 nM and 7.09 µM.

These data come from PubChem BioAssay (NCI).
